Among all 310,000 compounds or so, about 2,200 (0.71%) showed an effect of 50% or more. The effect is printed as a negative number. This is one part of the list.
target: human ether-à-go-go-related gene (hERG) potassium channel (human, UniProt Q12809); test: primary screen, population patch clamp on CHO cells stably expressing hERG
Sequence (Q12809 whole entry, looked up): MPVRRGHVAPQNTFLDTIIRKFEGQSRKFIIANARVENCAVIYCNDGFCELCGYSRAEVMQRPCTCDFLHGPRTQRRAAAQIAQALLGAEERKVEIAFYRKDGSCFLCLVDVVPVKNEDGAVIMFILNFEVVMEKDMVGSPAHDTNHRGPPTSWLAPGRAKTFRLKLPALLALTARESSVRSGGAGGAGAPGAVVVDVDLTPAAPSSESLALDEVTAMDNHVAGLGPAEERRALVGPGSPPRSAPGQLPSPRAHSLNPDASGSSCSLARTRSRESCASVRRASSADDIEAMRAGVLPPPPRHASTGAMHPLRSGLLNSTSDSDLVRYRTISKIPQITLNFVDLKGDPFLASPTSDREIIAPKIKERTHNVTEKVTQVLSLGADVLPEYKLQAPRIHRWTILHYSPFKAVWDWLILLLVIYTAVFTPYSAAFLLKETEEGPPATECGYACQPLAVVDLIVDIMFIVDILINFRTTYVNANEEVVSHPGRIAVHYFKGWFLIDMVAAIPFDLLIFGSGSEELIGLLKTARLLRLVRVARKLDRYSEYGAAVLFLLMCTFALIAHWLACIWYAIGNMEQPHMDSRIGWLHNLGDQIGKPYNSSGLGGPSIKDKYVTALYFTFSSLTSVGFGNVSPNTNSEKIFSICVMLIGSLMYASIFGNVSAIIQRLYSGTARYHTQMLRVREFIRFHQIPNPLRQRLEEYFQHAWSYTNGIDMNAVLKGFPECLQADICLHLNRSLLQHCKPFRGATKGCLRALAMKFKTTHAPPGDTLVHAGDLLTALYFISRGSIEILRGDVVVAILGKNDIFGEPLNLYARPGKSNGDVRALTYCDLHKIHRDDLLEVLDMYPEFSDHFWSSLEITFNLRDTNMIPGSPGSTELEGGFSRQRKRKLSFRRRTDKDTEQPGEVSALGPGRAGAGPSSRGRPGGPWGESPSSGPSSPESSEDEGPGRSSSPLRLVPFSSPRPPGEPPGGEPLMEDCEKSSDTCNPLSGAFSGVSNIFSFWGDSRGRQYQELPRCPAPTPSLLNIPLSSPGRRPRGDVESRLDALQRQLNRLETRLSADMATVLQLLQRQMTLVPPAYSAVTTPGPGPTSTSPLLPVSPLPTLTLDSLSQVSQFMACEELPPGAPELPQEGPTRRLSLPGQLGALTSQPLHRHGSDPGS

| Compound | hERG current change (%, negative = inhibition) at 1uM |
| --- | --- |
| O=C(COC(=O)c1cccnc1)Nc1ccccc1 | 9.77% |
| COC(=O)c1cnc(Oc2ccc(NC(=O)NC(=O)c3ccccc3Cl)cc2)cc1C(F)(F)F | 4.04% |
| CCOc1ccccc1N1CCN(C(=O)CNC(=O)c2ccccc2F)CC1 | -12.2% |
| O=C(Cn1c2ccccc2c(=O)c2ccccc21)N/N=C/c1cc([N+](=O)[O-])ccc1N1CCCCC1 | 4.22% |
| COc1cccc2cc(/C(C)=N/Nc3nc(-c4cc(C)ccc4C)cs3)c(=O)oc12 | 3.8% |
| N#Cc1c2c(c(-c3ccco3)[nH]c1=O)CCCC2 | 5.38% |
| COc1ccccc1N1C(=O)[C@@H]2C(C(=O)CN3C(=O)c4ccccc4C3=O)=NN[C@@H]2C1=O | 13% |
| CCC(=O)Nc1ccccc1Sc1ncnc2scc(-c3ccccc3)c12 | 4.48% |
| CN(C)CCNC(=O)c1cc2cc(Br)ccc2oc1=O | 6.58% |
| CCOC(=O)C1=NN(C(=O)Nc2cccc(C(F)(F)F)c2)C2C(=O)N(c3cccc(C(F)(F)F)c3)C(=O)C12 (stereo not drawn) | 10% |
| Cc1cccc(-n2c(SCc3cc(=O)n4ccsc4n3)nc3ccccc3c2=O)c1 | 13.2% |
| COc1ccc(S(=O)(=O)N2CCCCCC2)cc1NC(=O)Cc1ccccc1F | -7.9% |
| COCC(C)NC(=O)c1cc(-c2ccc(OC)c(OC)c2)on1 (stereo not drawn) | 5.77% |
| Cc1ccc(NC(=O)COC(=O)CSC(=S)N2CCOCC2)cc1 | 16.6% |
| C/C(=N\N=C(N)N)c1cc(Cl)ccc1Cl.CC(=O)O | 7.3% |
| Cc1c(Br)c(=O)oc2c(C)c(O)ccc12 | 9.33% |
| O=C(COc1ccccc1)NC1CCCCCCC1 | -3.06% |
| CCCCOC(=O)C[N+](C)(C)CCOC1CC2CCC1(C)C2(C)C.[Br-] (stereo not drawn) | -4.93% |
| CS(=O)(=O)N(Cc1ccc(C(=O)NCc2ccco2)cc1)c1ccccc1 | 2.71% |
| COc1ccc(/C=N/n2c(-c3ccc(C)cc3)n[nH]c2=S)cc1OC | 13.6% |
| CCN(CC)P(=O)(/C(Cl)=C\Nc1c(C)n(C)n(-c2ccccc2)c1=O)N(CC)CC | -5.86% |
| CCc1ccc(-n2c(Cn3nc(C(F)(F)F)cc3C)n[nH]c2=S)cc1 | 9.52% |
| Cc1ccc(-c2noc(CCCc3ccccc3)n2)cc1 | 9.6% |

| Compound | hERG current change (%, negative = inhibition) at 1uM |
| --- | --- |
| CC(=O)c1ccc(N(CC(=O)NC2CCCC2)C(=O)CCC(=O)Nc2cc(C)on2)cc1 | 12.7% |
| Cn1c(NCc2ccco2)nc2c1c(=O)n(Cc1ccc(Cl)cc1)c(=O)n2C | 6.31% |
| Cc1sc2cc3c(c(C(=O)c4ccccc4)[n+]2c1C)-c1cccc2cccc-3c12.[Br-] | -47.2% |
| Cc1ccc(CNC(=O)COC(=O)c2c(C)noc2C)cc1 | 12.5% |
| O=C(c1ccc(COc2ccccc2Cl)o1)N1CCN(c2ccccc2)CC1 | 6.6% |
| O=C(CSc1nnc(-c2ccc(F)cc2)c2ccccc12)Nc1ccccc1Cl | 15.2% |
| O=C(Nc1nc2c(s1)CN(Cc1ccccc1)CC2)c1cccc(S(=O)(=O)N2CCc3ccccc32)c1 | 11.5% |
| Cn1c(=O)n(C)c2cc([N+](=O)[O-])c(N3CCN(C(=O)C(C)(C)C)CC3)cc21 | 11.3% |
| Clc1ccc(N2CCN(c3nc4nonc4nc3N3CCSCC3)CC2)nc1 | -0.32% |
| COc1ccc(-n2nc(N)c3c(=O)oc(N(C)C)nc32)cc1 | 9.61% |
| CCCOc1ccc2cc(-c3ccccn3)c(=O)oc2c1 | -7.01% |
| CCOc1[nH]n(-c2ccccc2)c(=O)c1C=Nc1ccccc1 | 2.99% |
| CCOCCCn1c(=N)c(C(=O)NCCN2CCOCC2)cc2c(=O)n3cccc(C)c3nc21 | -17% |
| CC1=NN(C(=O)c2csc(C(C)C)c2)C(O)(C(F)(F)F)C1 (stereo not drawn) | 7.09% |
| Cc1cccc(C(=O)NNC(=O)C2CCCO2)c1 (stereo not drawn) | -4.43% |
| Cc1ccnc(NC(=O)c2ccc(Cl)cc2Cl)n1 | 5.53% |
| O=C(c1ccc(Cl)cc1)N(Cc1ccccc1F)N1C(=O)CCCC1=O | 11.4% |
| O=C(N/N=C/C=C/c1ccco1)c1cccc([N+](=O)[O-])c1 | -0.965% |
| Cc1cccc(NS(=O)(=O)c2csc(C(N)=O)c2)c1C | 13.2% |
| Cc1[nH]c(=O)[nH]c(=O)c1S(=O)(=O)Nc1ccc(Br)cc1F | 13.7% |
| O=C(O)CCCNC(=O)CCCNC(=O)C(c1ccccc1)c1ccccc1 | 27.1% |
| CCc1ccccc1NC(=S)N1N=CCC1c1ccccc1 (stereo not drawn) | 7.45% |
| O=C(Nc1ccc(Cl)c(S(=O)(=O)N2CCOCC2)c1)[C@@H]1CCCN1C(=O)c1cccs1 | 2.27% |

| Compound | hERG current change (%, negative = inhibition) at 1uM |
| --- | --- |
| CC(C)OC(=O)Cc1ccccc1 | 10.3% |
| COCCSc1nnc(NC(=O)c2ccc(OC)c([N+](=O)[O-])c2)s1 | 12.6% |
| COc1ccc2oc(C(=O)N(C)Cc3ccc(OC(F)F)cc3)c(C)c2c1 | 11.3% |
| COC(=O)Cn1cnc2c(nnn2Cc2ccc(Cl)cc2)c1=O | 4.47% |
| CCCCNc1cc(=O)oc2ccccc12 | 7.81% |
| CNc1c(NS(=O)(=O)c2ccc(F)cc2)c(=O)oc2ccccc12 | 17% |
| CC(C)c1ccc(NC(=O)Nc2cnccn2)cc1 | -5.78% |
| O=C(CSc1nnc(-c2ccco2)o1)N1CCN(c2ccccc2)CC1 | 14.7% |
| Cc1nn(C)c2ncc(C(=O)c3cc(F)ccc3O)cc12 | 5.37% |
| O=C1CC(c2ccccc2)=NN1c1ccc([N+](=O)[O-])cc1 | 9.9% |
| CCCc1cc(=O)n2[nH]c(-c3ccc(Cl)cc3)cc2n1 | 6.58% |
| O=C(c1cccs1)N(Cc1cc2ccccc2[nH]c1=O)CC1CCCO1 (stereo not drawn) | 9.25% |
| COc1cccc(N2CC(O)=C(c3nc4ccccc4c(=O)[nH]3)C2=N)c1 | 6.93% |
| COc1ccc(OC)c2c1nc1n2CCS1 | 4.74% |
| CCc1nnc(NC(=O)c2c(C)nn(-c3ccccc3)c2Cl)s1 | 13.1% |
| COc1cc(C(=O)NC(=S)NNC(=O)[C@H]2C[C@@H]2c2ccccc2)cc(OC)c1OC | 11.6% |
| Cc1c(-c2nc(-c3ccc(C(C)(C)C)cc3)no2)n(C)oc1=O | 11.7% |
| O=c1c2ccccc2nc(-c2ccco2)n1-c1nccs1 | 2.4% |
| Clc1ccc(/C=N/Nc2nc(Cl)nc3ccccc23)cc1 | 9.9% |
| COc1cc(OC)c(NC(=S)Nc2cccc(C)c2)cc1Cl | 6.01% |
| Cc1noc(/C=C/N(C)C)c1S(=O)(=O)N1CCC(C(=O)O)CC1 | 19.9% |
| COc1cccc(-c2nn(-c3ccccc3)cc2CN(C)C(C)c2ccncn2)c1 (stereo not drawn) | 10.6% |
| COc1ccc2oc(=N)c(C(=O)Nc3ccc(Br)cc3)cc2c1 | 13.9% |

| Compound | hERG current change (%, negative = inhibition) at 1uM |
| --- | --- |
| O=C(c1cc(=O)c2cc(Cl)ccc2o1)N1CCN(Cc2ccccc2)CC1 | -42.1% |
| O=C(CNC(=S)N(Cc1ccccc1)Cc1cccnc1)NC1CCCCC1 | 10.7% |
| Cc1nnc(SCc2ccccc2)[nH]c1=O | 4.62% |
| Cn1nccc1NC(=O)NC(=O)c1c(Cl)cccc1Cl | 8.82% |
| COc1ccc(C(=O)Nc2ccc(N3CCC(C)CC3)cc2)cc1Br | 9.95% |
| Cc1cc(OCC(O)CN)ccc1Cl (stereo not drawn) | 2.55% |
| Cn1nnnc1SCc1nnc(-c2ccc(F)cc2)o1 | -7.45% |
| O=C(c1ccccc1)c1ccc(-n2ccnc2)c([N+](=O)[O-])c1 | 10.1% |
| COc1ccccc1NC(=O)c1ccc(-c2ccc(Br)cc2)o1 | 8.9% |
| CCN1CCN(Cc2c(C)[nH]c3ccc(OC)cc3c2=O)CC1 | 11.2% |
| COc1ccccc1N1C(=O)CC(N2CCN(c3ccc(Cl)cc3)CC2)C1=O (stereo not drawn) | 5.49% |
| C=CCNC(=O)N1CCCC(C(=O)c2cccc(OC(C)C)c2)C1 (stereo not drawn) | 17% |
| CCCCc1nc(NCCO)c(C#N)c2c1CCCC2 | -8.05% |
| CCOc1ccc(NC(=O)[C@@H](NC(=O)c2ccco2)C(C)C)cc1 | 5.63% |
| c1ccc(-c2ncc(CN3CCN(c4ccccn4)CC3)[nH]2)cc1 | 5.09% |
| CCOC(=O)c1cc(-c2ccccc2)sc1NC(=O)c1ccc(OC)c(OC)c1 | 2.1% |
| COc1ccc(CCNC(=O)CCn2c(=O)c3ccccc3n(CC(=O)NCC3CCCO3)c2=O)cc1OC (stereo not drawn) | 9.7% |
| O=C1CCCN1CCC(=O)N1CCCC(Nc2ccc(F)c(F)c2)C1 (stereo not drawn) | 4.57% |
| CCOC(=O)NC(=O)/C(C#N)=N\Nc1cccc(OC)c1 | 13.7% |
| O=C(Nc1ccc(Cl)c(Cl)c1)C1CCCCC1 | 4.4% |
| Cc1cccc(C2(c3cccc(C)c3)OC(=O)c3ccccc32)c1 | 13.2% |
